Laboratory results: PubChem BioAssay AID504832 (National Center for Advancing Translational Sciences (NCATS), 2011)
Screen size: about 310,000 compounds; about 18,000 (5.8%) were called active. The shares of active, inactive and inconclusive entries below differ from those in the screen. Calls follow the shape of the dose curve; as a rule, active = well fitted inhibition curve with a large enough effect; inconclusive = small, poorly fitted or top-dose-only effect, or another doubt; inactive = no such curve, though single readings can be large or run the other way. Potencies of inconclusive entries are left out as doubtful fits.

assay: Primary qHTS for delayed death inhibitors of the malarial parasite plastid, 48 hour incubation; settings: P. falciparum luciferase growth in erythrocytes; series mostly up to 28.7 µM
Method in brief: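 Erythrocytes infected with P. falciparum carrying an integrated firefly luciferase reporter (2% hematocrit, 0.1% parasitemia final) were exposed to compounds in RPMI 1640 with 0.5% Albumax at 37 C, 5% CO2. Growth inhibition was scored as reduced luminescence.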
Potency is read from the fitted curve at half-maximal effect; tags tell the direction and shape of the fitted curve.

SMILES | Potency
CCOc1ccc(S(=O)(=O)NCCC(=O)N2CC=C(c3ccccc3)CC2)cc1 | active: 9.28 µM
COc1ccc(-[n+]2c(C)cc(/C=C3\Sc4ccccc4N3C)cc2C)cc1 | active: 0.738 µM
O=C(Nc1ccc2c(c1)CN(Cc1ccco1)CC2)C1CCCO1 (stereo unspecified) | inactive
Cc1cc2oc(C(=O)N(Cc3cccs3)C3CCS(=O)(=O)C3)cc(=O)c2cc1Cl (stereo unspecified) | inconclusive [inhibitor, single point]
Cc1ccc(C(=O)OCC(=O)Nc2cccc(S(=O)(=O)N3CCCCC3)c2)o1 | inconclusive [inhibitor, single point]
O=c1c2ccc(Cl)cc2nc(-c2cccc(C(F)(F)F)c2)n1O | inconclusive [inhibitor, single point]
COCC1CCCN(Cc2nc(Cc3ccccc3)no2)C1 (stereo unspecified) | inactive
CC(C)(C)OC(=O)NCCCCCNC(=O)c1nc[nH]c1C(=O)NCc1ccccc1 | inconclusive [inhibitor, full curve]
COc1ccc(C(=O)NCc2ccc(N3CCN(C(=O)OC(C)(C)C)CC3)cc2)cc1 | inconclusive [inhibitor, single point]
CCc1noc(C)c1C(=O)OC(C)C(=O)Nc1cc([N+](=O)[O-])ccc1OC (stereo unspecified) | inactive
COC(=O)c1c(-c2ccccc2)nn(-c2ccccc2)c1C(=O)OC | inactive
O=C(Nc1nccs1)c1sc2ccccc2c1Cl | inactive
COc1ccc(C(c2sc3nc(C)nn3c2O)N2CCN(Cc3ccccc3)CC2)cc1OC (stereo unspecified) | inconclusive [inhibitor, full curve]
Cc1nn(-c2ccc(F)cc2)c(Cl)c1/C=N/NC(=O)c1cccc(S(=O)(=O)N2CCCC2)c1 | inconclusive [inhibitor, partial curve, poor fit]
COc1ccc(NS(=O)(=O)c2cccc(C(=O)NNC(=O)c3ccccc3O)c2)cc1 | inconclusive [inhibitor, single point]
CC(=O)Nc1ccc(S(=O)(=O)N(C)CC(=O)Nc2nc3ccccc3[nH]2)cc1 | inconclusive [inhibitor, partial curve]
N#CCc1nc(C(c2ccccc2)c2ccccc2)no1 | inconclusive [inhibitor, full curve, poor fit]
Cc1cccc(OCC(O)Cn2c(N3CCCCC3)nc3c2c(=O)n(C)c(=O)n3C)c1 (stereo unspecified) | inconclusive [inhibitor, single point]
Cc1cc(C)c2c(N)c(C(=O)N3CCCCCC3)sc2n1 | inconclusive [inhibitor, single point]
CCN1C(=O)c2cccc3c(S(=O)(=O)Nc4ccccc4OC)ccc1c23 | inconclusive [inhibitor, single point]
S=C(NCCc1ccccn1)NC1CCCCC1 | inactive
Cc1nnc(SCC(=O)NCc2ccccc2Cl)[nH]c1=O | inactive
CCN(CC(=O)Nc1c(F)cccc1F)C(=O)C(C)SCc1nc2sc(C)c(C)c2c(=O)[nH]1 (stereo unspecified) | inconclusive [inhibitor, single point]

SMILES | Potency
CCc1cc(C(=O)NNC(=S)NC(C)c2ccccc2)cs1 (stereo unspecified) | inactive
CCO[C@H]1OC(C(=O)N2CCCCCCC2)=C[C@@H](C)[C@@H]1CCCO | inactive
O=C(N/N=C/c1sc(N2CCOCC2)nc1-c1ccccc1)c1ccccc1F | inconclusive [inhibitor, partial curve, poor fit]
CCOc1cc(NC(=O)c2ccco2)c(OCC)cc1NC(=O)CCc1ccccc1OC | inconclusive [inhibitor, single point]
CC(C)Cc1nnc(NC(=O)CCC(=O)NC2CCCCCC2)s1 | inactive
Cc1nc2c(ccc3nc(NC(=O)C4CC4)sc32)s1 | inactive
CCN(CC)S(=O)(=O)c1cccc(NC(=O)COC(=O)C2CC3C=CC2C3)c1 (stereo unspecified) | inconclusive [inhibitor, single point]
COc1ccc(-c2cc(COc3ccccc3)on2)cc1 | inactive
COC(=O)[C@@H](NCc1cccc(CN([C@H](C(=O)OC)C(C)C)S(C)(=O)=O)c1)C(C)C | inconclusive [inhibitor, single point]
COc1ccc(CC(=O)N/N=C(\C)c2ccccn2)cc1 | active: 3.29 µM
Cc1ccc(S(=O)(=O)NC(Cc2ccccc2)C(=O)NN)cc1 (stereo unspecified) | inactive
O=C(OCC(=O)c1ccc(Cl)cc1Cl)c1ccc2c(c1)C(=O)N(c1cccc3ncccc13)C2=O | inactive
CCOc1ccccc1CNC(=O)C1CCCN(c2nn3c(=O)cc(C)nc3s2)C1 (stereo unspecified) | inconclusive [inhibitor, single point]
CC(=O)Nc1sc(N/N=C/c2ccc(C)cc2)nc1-c1ccc(C)cc1 | inconclusive [inhibitor, single point]
CC(=O)NCCOc1nc(N2CCCCC2)nc(N2CCCCC2)n1 | inactive
COCc1cc(C)nc(Sc2nc3c(c(=O)n(C)c(=O)n3C)n2C)c1C#N | inconclusive [inhibitor, partial curve, poor fit]
Cn1c(SCc2nnc(-c3ccccc3Br)o2)nc2sc3c(c2c1=O)CCC3 | inconclusive [inhibitor, partial curve, poor fit]
Cc1cccc(N2C(=S)NC3c4ccccc4OC2(C)C3C(=O)N(C)C)c1 (stereo unspecified) | inactive
Cc1cc(=O)oc2c(C)c(OCC(=O)NCC3CCC(C(=O)O)CC3)ccc12 (stereo unspecified) | inactive
Cc1ccc(NC(=O)CSc2n[nH]c(-c3ccccn3)n2)cc1 | inconclusive [inhibitor, partial curve, poor fit]
Cc1nc2c(=O)n(-c3ccc(F)c(Cl)c3)nc(C)c2s1 | inconclusive [inhibitor, partial curve]
COc1cc(/C=C2/SC(=S)N(Cc3ccccc3)C2=O)ccc1OS(C)(=O)=O | inactive
Cc1ccc(C(=O)NCc2ccco2)cc1S(=O)(=O)N1CCOCC1 | inconclusive [inhibitor, partial curve, poor fit]
